The structures appear in SMILES notation. Where only a bound is given, the exact number is not on record here.

The assay concerns the target T1, biotinylated truncated STAT6 (123-632)-avi (Homo sapiens, UniProt P42226).
T1 sequence (P42226 123-632 limits assumed): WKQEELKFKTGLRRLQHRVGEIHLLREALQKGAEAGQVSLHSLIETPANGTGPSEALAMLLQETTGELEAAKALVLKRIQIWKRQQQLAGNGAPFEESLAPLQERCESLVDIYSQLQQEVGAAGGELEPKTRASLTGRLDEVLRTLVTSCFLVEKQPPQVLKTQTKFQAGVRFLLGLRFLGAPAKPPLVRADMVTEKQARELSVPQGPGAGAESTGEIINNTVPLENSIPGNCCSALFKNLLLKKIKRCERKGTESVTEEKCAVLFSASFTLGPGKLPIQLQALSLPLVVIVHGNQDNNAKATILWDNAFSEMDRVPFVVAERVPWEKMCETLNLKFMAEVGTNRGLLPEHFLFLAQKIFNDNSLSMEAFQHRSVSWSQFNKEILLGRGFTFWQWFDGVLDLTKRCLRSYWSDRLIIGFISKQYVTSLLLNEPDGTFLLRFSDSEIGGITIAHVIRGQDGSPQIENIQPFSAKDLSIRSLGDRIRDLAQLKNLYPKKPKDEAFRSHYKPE
Nature of the assay: Homogenous Time-Resolved Fluorescence (HTRF) binding assay. The conditions noted are these: 0.15 nM biotinylated truncated STAT6 (123-632)-avi, 20 nM fluorescein-labeled probe, 30 minutes at room temperature.

In turn, `COc1c(F)cccc1-c1cc(C2=CCCN(C(=O)CCn3ccnn3)C2)cc2cc(C(=O)N(C)C)oc12` [Example I-1076] gave an IC50 of less than 0.1 µM.
Under `CN(C)C(=O)c1cc2cc(C3=CCCN(C(=O)CCn4ccnn4)C3)cc(-c3cnn(C)c3)c2o1` [Example I-1077] stands less than 0.1 µM; under `Cc1ccc(C#N)cc1-c1cc(C2=CCCN(C(=O)CCn3ccnn3)C2)cc2cc(C(=O)N(C)C)oc12` [Example I-1079], less than 0.1 µM; under `CN(C)C(=O)c1cc2cc(C3=CCCN(C(=O)CCn4ccnn4)C3)cc(-c3ccc4[nH]ncc4c3)c2o1` [Example I-1080], less than 0.1 µM.
Compound `CN(C)C(=O)c1cc2cc(C3=CCCN(C(=O)CCn4ccnn4)C3)cc(-c3cc(F)ccc3C(F)(F)F)c2o1` [Example I-1081] showed an IC50 of less than 0.1 µM.
On to `COc1ncccc1-c1cc(C2=CCCN(C(=O)CCn3ccnn3)C2)cc2cc(C(=O)N(C)C)oc12` [Example I-1082], for which the half-inhibitory concentration (IC50) was less than 0.1 µM.
The figure for `Cc1ccc(-c2cc(C3=CCCN(C(=O)CCn4ccnn4)C3)cc3cc(C(=O)N(C)C)oc23)cn1` [Example I-1084] is less than 0.1 µM; for `Cc1c[nH]c2ncc(-c3cc(C4=CCCN(C(=O)CCn5ccnn5)C4)cc4cc(C(=O)N(C)C)oc34)cc12` [Example I-1085] it is less than 0.1 µM; for `Cc1ccccc1-c1cc(C2=CCCN(C(=O)CCn3ccnn3)C2)cc2cc(C(=O)N(C)C)oc12` [Example I-1086] it is less than 0.1 µM.
The compound `CN1CCN(c2ccc(-c3cc(C4=CCCN(C(=O)CCn5ccnn5)C4)cc4cc(C(=O)N(C)C)oc34)cn2)CC1` [Example I-1087] registered an IC50 of less than 0.1 µM.
Under `COc1cc(-c2cc(C3=CCCN(C(=O)CCn4ccnn4)C3)cc3cc(C(=O)N(C)C)oc23)cc(OC)c1OC` [Example I-1088] stands less than 0.1 µM.
The figure for `CN(C)C(=O)c1cc2cc(C3=CCCN(C(=O)CCn4ccnn4)C3)cc(-c3ccc4cncnc4c3)c2o1` [Example I-1089] is less than 0.1 µM; for `COc1ccccc1-c1cc(C2=CCCN(C(C)=O)C2)cc2[nH]c(C(=O)N(C)C)cc12` [Example I-1091] it is 0.1 to 1 µM.
The compound `CNc1ccc(-c2cc(C3=CCCN(C(C)=O)C3)c(F)c3[nH]c(C(=O)N(C)C)cc23)c(OC)c1` [Example I-1092] had an IC50 of less than 0.1 µM.
On to `CC(=O)N1CCC=C(c2cc(-c3ccccc3N(C)C)c3cc(C(=O)N(C)C)[nH]c3c2F)C1` [Example I-1093], for which the IC50 fell in the range of 0.1 to 1 µM.
As for `COc1ccncc1-c1cc(C2=CCCN(C(C)=O)C2)c(F)c2[nH]c(C(=O)N(C)C)cc12` [Example I-1094], the half-maximal inhibitory concentration (IC50) was less than 0.1 µM.
The figure for `CC(=O)N1CCC=C(c2cc(-c3cccc4c3OCCO4)c3cc(C(=O)N(C)C)[nH]c3c2F)C1` [Example I-1095] is less than 0.1 µM; for `CN(C)C(=O)c1ccc2c(c1)cc(C1=CCCN(C(=O)CCn3ccnn3)C1)n2CC1CC1` [Example I-1096] it is less than 0.1 µM; for `CC(=O)c1ccccc1-c1cc(C2=CCCN(C(C)=O)C2)c(F)c2[nH]c(C(=O)N(C)C)cc12` [Example I-1097] it is more than 100 µM.
The figure for `CC(=O)N1CCC=C(c2cc(-c3ccccc3C(N)=O)c3cc(C(=O)N(C)C)[nH]c3c2F)C1` [Example I-1099] is 0.1 to 1 µM; for `Cc1c[nH]c2ncc(-c3cc(C4=CCCN(C(=O)CCn5ccnn5)C4)c(F)c4cc(C(=O)N(C)C)oc34)cc12` [Example I-1100] it is less than 0.1 µM; for `Cc1c[nH]c2ncc(-c3cc(C4=CCCN(C(=O)CCn5ccnn5)C4)c(F)c4[nH]c(C(=O)N(C)C)cc34)cc12` [Example I-1101] it is less than 0.1 µM.
For `COc1ccccc1-c1cc(C2=CCCN(C(=O)CCn3ccnn3)C2)cc2cc(C(=O)N(C)C)oc12` [Example I-1103], the half-inhibitory concentration (IC50) was less than 0.1 µM.
The figure for `COc1ccccc1-c1cc(C2=CCCN(C(C)=O)C2)c(F)c2cc(C(=O)N(C)C)oc12` [Example I-1104] is 0.1 to 1 µM; for `COc1cccc(F)c1-c1cc(C2=CCCN(C(C)=O)C2)c(F)c2cc(C(=O)N(C)C)oc12` [Example I-1105] it is 0.1 to 1 µM.
As to `COc1ccccc1-c1cc(C2=CCCN(C(C)=O)C2)c(F)c2sc(C(=O)N3CCN(c4ncccc4OC)CC3)cc12` [Example I-1106], the IC50 is 1 to 10 µM.
Consider `COc1cc(F)ccc1-c1cc(C2=CCCN(C(=O)CCn3ccnn3)C2)c(F)c2[nH]c(C(=O)N3CCN(c4ccc(F)c(OC)n4)CC3)cc12` [Example I-1107], for which the IC50 was in the range of 0.1 to 1 µM.
Under `CCOc1ccncc1-c1cc(C2=CCCN(C(=O)CCn3ccnn3)C2)c(F)c2[nH]c(C(=O)N3CCN(c4ncncc4OC)CC3)cc12` [Example I-1108] stands less than 0.1 µM.
Under `COc1cccc(N2CCN(C(=O)c3cc4c(-c5ccc(N(C)C)cc5OC)cc(C5=CCCN(C(=O)CCn6ccnn6)C5)c(F)c4[nH]3)CC2)n1` [Example I-1109] stands less than 0.1 µM; under `COc1cc(F)cnc1N1CCN(C(=O)c2cc3c(C=CC(C)(C)O)cc(C4=CCCN(C(=O)CCn5ccnn5)C4)c(F)c3[nH]2)CC1` [Example I-1110], less than 0.1 µM; under `COc1cc(F)cnc1N1CCN(C(=O)c2cc3c(-c4ccc(OC5CCOCC5)cc4)cc(C4=CCCN(C(=O)CCn5ccnn5)C4)c(F)c3[nH]2)CC1` [Example I-1111], less than 0.1 µM.
The figure for `COCCCOc1ccc(-c2cc(C3=CCCN(C(=O)CCn4ccnn4)C3)c(F)c3[nH]c(C(=O)N4CCN(c5ncc(F)cc5OC)CC4)cc23)cc1` [Example I-1112] is less than 0.1 µM; for `COc1cc(F)cnc1N1CCN(C(=O)c2cc3c(-c4ccn(-c5ccccc5)n4)cc(C4=CCCN(C(=O)CCn5ccnn5)C4)c(F)c3[nH]2)CC1` [Example I-1113] it is 0.1 to 1 µM.
On to `COc1cc(F)cnc1N1CCN(C(=O)c2cc3c(-c4ccc(-n5nc(C)cc5C)cc4)cc(C4=CCCN(C(=O)CCn5ccnn5)C4)c(F)c3[nH]2)CC1` [Example I-1114], for which the half-maximal inhibitory concentration (IC50) was less than 0.1 µM.
Under `COc1cc(F)cnc1N1CCN(C(=O)c2cc3c(-c4cnn(Cc5ccccc5)c4)cc(C4=CCCN(C(=O)CCn5ccnn5)C4)c(F)c3[nH]2)CC1` [Example I-1115] stands less than 0.1 µM.
As to `COc1cc(F)cnc1N1CCN(C(=O)c2cc3c(C4=CCN(c5ccccn5)CC4)cc(C4=CCCN(C(=O)CCn5ccnn5)C4)c(F)c3[nH]2)CC1` [Example I-1117], the IC50 was less than 0.1 µM.
Consider `COc1cc(F)cnc1N1CCN(C(=O)c2cc3c(-c4ccc(-c5ccncc5)cc4)cc(C4=CCCN(C(=O)CCn5ccnn5)C4)c(F)c3[nH]2)CC1` [Example I-1118], for which the IC50 was less than 0.1 µM.
Under `COc1cc(F)cnc1N1CCN(C(=O)c2cc3c(-c4cccc5cnccc45)cc(C4=CCCN(C(=O)CCn5ccnn5)C4)c(F)c3[nH]2)CC1` [Example I-1119] stands less than 0.1 µM.
For the compound `COc1cc(F)cnc1N1CCN(C(=O)c2cc3c(-c4ccc(-c5ccccn5)cc4)cc(C4=CCCN(C(=O)CCn5ccnn5)C4)c(F)c3[nH]2)CC1` [Example I-1120], the IC50 was less than 0.1 µM.
As to `COc1cc(F)cnc1N1CCN(C(=O)c2cc3c(-c4ccc(C(C)N5CCOCC5)cc4)cc(C4=CCCN(C(=O)CCn5ccnn5)C4)c(F)c3[nH]2)CC1` (stereo not drawn) [Example I-1121], the IC50 was less than 0.1 µM.
Consider `COc1cc(F)cnc1N1CCN(C(=O)c2cc3c(-c4ccc(CN5CCOCC5)cc4)cc(C4=CCCN(C(=O)CCn5ccnn5)C4)c(F)c3[nH]2)CC1` [Example I-1122], for which the IC50 was less than 0.1 µM.
Under `COc1cc(F)cnc1N1CCN(C(=O)c2cc3c(-c4ccccc4CN4CCOCC4)cc(C4=CCCN(C(=O)CCn5ccnn5)C4)c(F)c3[nH]2)CC1` [Example I-1123] stands less than 0.1 µM; under `COc1cc(F)cnc1N1CCN(C(=O)c2cc3c(-c4ccc(NC5CCCC5)cc4)cc(C4=CCCN(C(=O)CCn5ccnn5)C4)c(F)c3[nH]2)CC1` [Example I-1124], 0.1 to 1 µM.
Turning to `CCOCc1cc(F)ccc1-c1cc(C2=CCCN(C(=O)CCn3ccnn3)C2)c(F)c2[nH]c(C(=O)N3CCN(c4ncc(F)cc4OC)CC3)cc12` [Example I-1125], the half-maximal inhibitory concentration (IC50) was less than 0.1 µM.
Under `COc1cc(F)cnc1N1CCN(C(=O)c2cc3c(C4=CCCOC4)cc(C4=CCCN(C(=O)CCn5ccnn5)C4)c(F)c3[nH]2)CC1` [Example I-1126] stands less than 0.1 µM; under `CCCCOc1ccc(-c2cc(C3=CCCN(C(=O)CCn4ccnn4)C3)c(F)c3[nH]c(C(=O)N4CCN(c5ncc(F)cc5OC)CC4)cc23)cc1` [Example I-1127], 0.1 to 1 µM; under `COc1cccc(/C=C/c2cc(C3=CCCN(C(=O)CCn4ccnn4)C3)c(F)c3[nH]c(C(=O)N4CCN(c5ncc(F)cc5OC)CC4)cc23)c1` [Example I-1129], less than 0.1 µM.
Under `COc1ccccc1/C=C/c1cc(C2=CCCN(C(=O)CCn3ccnn3)C2)c(F)c2[nH]c(C(=O)N3CCN(c4ncc(F)cc4OC)CC3)cc12` [Example I-1130] stands 0.1 to 1 µM.
Under `COc1cc(F)cnc1N1CCN(C(=O)c2cc3c(C4=CCN(C5CC5)CC4)cc(C4=CCCN(C(=O)CCn5ccnn5)C4)c(F)c3[nH]2)CC1` [Example I-1131] stands less than 0.1 µM; under `COc1cc(F)cnc1N1CCN(C(=O)c2cc3c(C4=CCN(Cc5ccccc5)CC4)cc(C4=CCCN(C(=O)CCn5ccnn5)C4)c(F)c3[nH]2)CC1` [Example I-1132], less than 0.1 µM.
`COc1cc(F)cnc1N1CCN(C(=O)c2cc3c(C4=CCN(C(C)C)CC4)cc(C4=CCCN(C(=O)CCn5ccnn5)C4)c(F)c3[nH]2)CC1` [Example I-1133] gave an IC50 of less than 0.1 µM.

For the origin of these results see US20250214977A1, “STAT6 INHIBITORS AND USES THEREOF” (Kymera Therapeutics, Inc., priority 2024, published 2025).
